Experimental data as given in PMC4336329 (PLoS ONE, 2015).
The whole screen tested about 310,000 compounds, of which about 2,200 (0.71%) showed an effect of 50% or more. The effect is printed as a negative number. This is one part of the list.

These compounds were tested against human ether-à-go-go-related gene (hERG) potassium channel (human, UniProt Q12809) (assay: primary screen, population patch clamp on CHO cells stably expressing hERG).
Sequence of human ether-à-go-go-related gene (hERG) potassium channel (Q12809 whole entry, looked up): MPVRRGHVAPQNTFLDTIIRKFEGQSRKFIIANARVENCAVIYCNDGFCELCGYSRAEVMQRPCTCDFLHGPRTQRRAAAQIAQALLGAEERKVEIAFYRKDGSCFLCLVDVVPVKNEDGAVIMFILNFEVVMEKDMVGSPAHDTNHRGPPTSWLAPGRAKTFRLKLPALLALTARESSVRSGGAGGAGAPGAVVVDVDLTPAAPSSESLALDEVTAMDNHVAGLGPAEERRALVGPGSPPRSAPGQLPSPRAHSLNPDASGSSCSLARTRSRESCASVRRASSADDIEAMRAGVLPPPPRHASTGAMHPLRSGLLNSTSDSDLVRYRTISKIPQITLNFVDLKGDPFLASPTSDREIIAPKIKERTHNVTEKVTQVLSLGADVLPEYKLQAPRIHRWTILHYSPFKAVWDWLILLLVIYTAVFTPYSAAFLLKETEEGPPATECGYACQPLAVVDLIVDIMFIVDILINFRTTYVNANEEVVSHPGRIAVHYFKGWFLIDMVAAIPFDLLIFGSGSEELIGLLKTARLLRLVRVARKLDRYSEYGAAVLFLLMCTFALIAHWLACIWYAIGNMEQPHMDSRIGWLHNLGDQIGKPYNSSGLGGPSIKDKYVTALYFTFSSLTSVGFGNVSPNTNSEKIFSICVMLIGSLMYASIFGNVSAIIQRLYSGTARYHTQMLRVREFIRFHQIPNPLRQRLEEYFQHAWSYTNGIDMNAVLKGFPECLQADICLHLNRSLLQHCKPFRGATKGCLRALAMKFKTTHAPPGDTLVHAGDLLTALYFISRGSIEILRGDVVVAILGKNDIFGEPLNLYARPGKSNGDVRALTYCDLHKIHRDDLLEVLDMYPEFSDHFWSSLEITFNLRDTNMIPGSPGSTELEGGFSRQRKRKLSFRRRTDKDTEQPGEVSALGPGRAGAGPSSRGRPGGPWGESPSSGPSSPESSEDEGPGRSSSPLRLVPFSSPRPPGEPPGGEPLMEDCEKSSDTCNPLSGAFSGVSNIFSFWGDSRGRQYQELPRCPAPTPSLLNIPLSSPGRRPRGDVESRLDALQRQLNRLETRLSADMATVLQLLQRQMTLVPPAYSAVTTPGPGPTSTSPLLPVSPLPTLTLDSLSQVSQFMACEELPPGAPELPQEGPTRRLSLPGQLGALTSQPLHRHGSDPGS

| SMILES | hERG current change (%, negative = inhibition) at 1uM [%] |
| --- | --- |
| Cc1cc(C#N)c(SCC(N)=O)nc1-c1ccc(F)cc1 | 10.5 |
| COc1ccc(-c2cc3c(=O)n(CC(=O)Nc4cccc(Cl)c4)nc(C)n3n2)cc1 | 0.236 |
| Cc1nc(C)c(C(=O)N/N=C/c2cc(Br)ccc2O)s1 | 25.4 |
| CCCCCC(=O)N/N=C/c1ccc(N(C)C)cc1 | 2.58 |
| COc1ccc(OCC(=O)NS(=O)(=O)c2ccc(Cl)cc2)cc1 | 13.9 |
| CCCN1C(=O)COc2ccc(C(=O)c3ccccc3C(=O)O)cc21 | 17.1 |
| CNc1ccccc1C(C)(C)c1cc(-c2cccc([N+](=O)[O-])c2)no1 | 10.8 |
| CSc1ccc(/C=C/C(=O)c2ccc(O)cc2)cc1 | 5.62 |
| COc1ccc(-c2nnnn2C)cc1S(=O)(=O)NCCc1ccccc1 | 11.7 |
| O=C(CSc1nc2c(cnn2-c2ccc(F)cc2)c(=O)[nH]1)Nc1nccs1 | 4 |
| CN1C(=O)CC(N2CCC(C(N)=O)CC2)C1=O (stereo not drawn) | 1.75 |
| Cc1ccccc1NC(=O)CN1CCN(Cc2ccccc2)CC1 | 1.75 |
| CCOc1ccccc1N=Cc1c(O)c2ccccc2oc1=O | 15.4 |
| CCN(CC)CCN(C(=O)c1ccc(S(=O)(=O)N(C)C2CCCCC2)cc1)c1nc2c(C)cccc2s1.Cl | 2.81 |
| CCC1NC(=O)c2ccccc2N1c1cccc(Cl)c1 (stereo not drawn) | 10.9 |
| Oc1ccc2ccc3[nH]cnc3c2c1 | -2.33 |
| Cc1cccc(/C=c2\s/c(=C\C(=O)C(C)(C)C)[nH]c2=O)c1 | 11.3 |
| O=C(COC(=O)/C=C/c1cccc(C(F)(F)F)c1)Nc1cccc2ccccc12 | 8.61 |
| CC(C)N(C(=O)CN1C(=O)C(=O)c2ccccc21)c1ccccc1 | 1.25 |
| O=C1Nc2ccccc2Oc2cc([N+](=O)[O-])cc(Oc3ccccc3)c21 | -4.94 |
| COc1cc(/C=C(\C#N)C(=O)Nc2ccc3ccccc3c2)c([N+](=O)[O-])cc1OC | 7.46 |
| COC(=O)CCCC(NC(=S)N1CC2C[C@@H](C1)Cn1c2cccc1=O)C(=O)OC (stereo partly drawn) | 5.9 |
| CCN(CC)CC(C)OC(=O)c1ccccc1Cl (stereo not drawn) | 21.8 |

| SMILES | hERG current change (%, negative = inhibition) at 1uM [%] |
| --- | --- |
| O=[N+]([O-])c1ccc(N2CCOCC2)c2cccnc12 | -7.04 |
| c1ccc(Nc2ncnc3c2oc2ccccc23)cc1 | 7.89 |
| C#Cc1ccc([C@@H]2C=C(C(=O)N3CCN(Cc4ccccc4)CC3)O[C@H](OCC)[C@H]2CCCO)cc1 | 14.6 |
| O=C(Oc1ccccc1C(=O)N1CCOCC1)c1ccccc1 | 9.69 |
| O=C(NCC(c1cccnc1)N1CCN(c2ccccc2)CC1)Oc1ccccc1 (stereo not drawn) | 9.09 |
| Cc1cccnc1NC(=O)Cn1nc(C)c([N+](=O)[O-])c1C | 5.46 |
| CCN(Cc1ccccc1)C(=O)c1cc(COc2c(F)cccc2F)on1 | 9.59 |
| Cn1cc(/C=N\NC(=O)C2COc3ccccc3O2)c2ccccc21 (stereo not drawn) | 8.45 |
| Cc1ccc(N(CCC#N)C(=O)CCl)cc1C | 8.95 |
| COc1cc(/C=C/C(=O)O)cc2c1OCCO2 | 19.6 |
| CN(C)C(=S)NC(=O)c1cccc(Cl)c1 | 13.3 |
| O=C(/C=C/c1ccccc1Cl)NC1CCS(=O)(=O)C1 (stereo not drawn) | 20.9 |
| CC(=O)OCCSc1c(-c2ccccc2)c2cc(Cl)ccc2[nH]c1=O | -1.73 |
| NS(=O)(=O)c1ccc(Nc2nc(-c3ccc(O)cc3O)cs2)cc1 | 5.54 |
| N#CCn1c(CCl)nc2ccccc2c1=O | 11.8 |
| O=C(Nc1csc(Cc2c(Cl)cccc2Cl)n1)NN1CCOCC1 | 14.8 |
| CN1C(=O)C(=Cc2ccccc2OS(=O)(=O)c2ccccc2)C(=O)N(C)C1=O | 9.02 |
| Nc1ccccc1C(=O)NCc1ccccc1 | 1.59 |
| CC(OC(=O)c1cnc2ccccc2n1)c1ccccc1Cl (stereo not drawn) | 8.02 |
| Cc1cc(-n2c(=S)sc3c(=O)n(-c4ccc(F)cc4)c(SCC(=O)O)nc32)ccc1Cl | 18.8 |
| N=C1S/C(=C\c2cccc3ccccc23)C(=O)N1c1ccc(F)cc1 | 14.8 |
| COc1ccc(C(NC(=O)C(C)(C)C)NC(=O)C(C)(C)C)cc1 | 20.2 |
| CC(CC(=O)c1cccs1)CC(=O)c1cccs1 | 6.05 |

| SMILES | hERG current change (%, negative = inhibition) at 1uM [%] |
| --- | --- |
| COc1cc(SC)ccc1C(=O)Nc1cccc(S(=O)(=O)NC2=NCCC2)c1 | 3.3 |
| O=C(/C=C/c1cn(-c2ccccc2)nc1-c1ccccc1)Nc1ccc(C(=O)O)cc1 | 19.2 |
| O=C(Nc1cc([N+](=O)[O-])ccc1C(=O)Nc1cccnc1)c1ccccc1 | 2.44 |
| CC(=O)Nc1cccc(NC(=O)CCCC(=O)O)c1 | 7.91 |
| O=C(Nc1ccc(C(=O)N2CCOCC2)cc1)c1ccccc1[N+](=O)[O-] | 14.9 |
| CCOC(=O)c1[nH]c2ccc(F)cc2c1NC(=O)CN1CCN(C/C=C/c2ccccc2)CC1 | -77.3 |
| CCN(CC)S(=O)(=O)c1ccc(/C=C/C(=O)Nc2ccc(Br)cc2F)cc1 | 1.33 |
| COC(=O)CNC(=O)COC(=O)/C=C/c1ccc2ccccc2n1 | 9.01 |
| COc1ccc(CN2C(=O)Cc3c2nc(N)c2c(N)nc(N4CCOCC4)c(C#N)c32)cc1 | 2.96 |
| CCOc1ccccc1CNS(=O)(=O)c1cc(-c2cc(C)no2)ccc1C | 8.79 |
| COc1ccc(-c2nc(C#N)c(NC(C)C)o2)cc1 | 21.2 |
| CN(C)C=Nc1ccc2nc3c(cc2c1)[nH]c1ccccc13 | 12.7 |
| Cc1cc(C)c(S(=O)(=O)Cc2ccccc2)c(=O)[nH]1 | 9.25 |
| COCCNC(=O)COC(=O)c1cc(-c2ccc(OC)cc2)nc2ccccc12 | 12.8 |
| CSc1n[nH]c(=O)n1-c1ccc(Cl)cc1 | 7.97 |
| O=C1OC(c2ccccc2)=N/C1=C/c1cccc(OC(=O)c2cccs2)c1 | 9.88 |
| CC(C)OCCCNC(=O)c1cccc(NC(=O)c2ccccc2)c1 | 4.17 |
| COc1ccccc1OCCSc1nnnn1C1CCCCC1 | -0.53 |
| CCOC(=O)c1sc(=NC(=O)COc2ccc(Cl)cc2)n(C)c1C | 9.2 |
| Cc1nc(Cl)c2c(n1)NC1=C(O2)C(=O)CCC1 | 12.7 |
| CSCCC1NC(=S)N(Cc2ccccc2)C1=O (stereo not drawn) | 17.9 |
| CC(C)(C)OC(=O)C1C(=O)CC(C)(O)C(C(=O)OC(C)(C)C)C1c1ccco1 (stereo not drawn) | 5.21 |
| CCN(c1ccccc1)S(=O)(=O)c1cc(C(=O)O)ccc1C | 2.11 |

| SMILES | hERG current change (%, negative = inhibition) at 1uM [%] |
| --- | --- |
| O=C(O)c1ccc(-n2c(O)c(C=C3N=c4ccccc4=N3)sc2=S)cc1 | 0.383 |
| Cc1cc(C)cc(NC(=O)C2CCCN(S(=O)(=O)c3c(C)noc3C)C2)c1 (stereo not drawn) | 1.27 |
| COc1cc2c(cc1OC)-c1cc(OCc3ccccc3Cl)nc(=O)n1CC2 | -7.33 |
| CC(=O)Nc1ccc(NC(=O)c2c(-c3ccccc3Cl)noc2C)c(C)c1 | 1.96 |
| CCOC(=O)c1cnn(-c2ncnc3c2cnn3Cc2ccccc2)c1N | 11.4 |
| CCOC(=O)N1CCN(C(=O)Nc2ccc(Cl)cc2Cl)CC1 | 8.25 |
| COc1ccccc1CNS(=O)(=O)c1cccs1 | 15.3 |
| C=CCOc1cccc(C2/C(=C(/O)c3ccc4c(c3)CC(C)O4)C(=O)C(=O)N2CCN2CCOCC2)c1 (stereo not drawn) | 7.91 |
| CC1CCN(S(=O)(=O)c2ccc(NC(=O)CN3CCN(c4ccccc4)CC3)cc2)CC1 | -10.4 |
| Cc1cccc(N/C(N)=N/c2nc3c(c(=O)[nH]2)CCCC3)c1 | -0.251 |
| CCOC(=O)c1ccc(NC(=O)NS(=O)(=O)c2ccc(C)cc2)cc1 | 10.4 |
| OC(c1ccncc1)(c1ccc(F)cc1)c1ccc(F)cc1 | 9.19 |
| COc1ccccc1CNC(=S)Nc1ccc(S(N)(=O)=O)cc1 | 14.6 |
| COc1cccc(-n2c(SCC(=O)N3CCCCC3)nc3c([nH]c4ccccc43)c2=O)c1 | 12.9 |
| COC(=O)c1cc(-c2ccccc2)n(CC(=O)O)c1C | 5.29 |
| CCOC(=O)c1ccc(NC(=S)NC(=O)COc2ccccc2)cc1 | 10.1 |
| Cc1nc(C)c(-c2ccn(S(=O)(=O)c3ccc(Cl)cc3)n2)o1 | 0.225 |
| COC/C=C/C1=CC2=CC(=O)C(C)(OC(=O)c3ccco3)C(=O)C2=CO1 (stereo not drawn) | 16.9 |
| O=C(NCCc1nc2ccccc2[nH]1)/C(=C/c1ccco1)NC(=O)c1ccc(Br)o1 | -9.29 |
| CCOc1ccccc1N1CCN(C/C=C/c2ccc(N(C)C)cc2)CC1 | -20.3 |
| Cn1c(N)c(C(=O)COC(=O)c2cc(S(=O)(=O)N3CCCCC3)ccc2Cl)c(=O)n(C)c1=O | 3.34 |
